Measured values taken from PubChem BioAssay AID1745853 (National Center for Advancing Translational Sciences (NCATS), 2022).
This is one part of the list. These are further read-outs of the screen, such as a control signal, another cell line or another target. No call is given for them.

Columns and labels:
Assay in all cases: Primary Screen for Target Class Profiling of Small Molecule Inhibitors of Methyltransferases
[1] = biological target: Glycine N-methyltransferase (Homo sapiens) (UniProt Q14749); details: purified enzyme, MTase-Glo SAH luminescence; measured here: GNMT inhibition; at 40 µM; stronger effect = lower value
How it was run: (§1)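 Each enzyme was assayed with SAM and its substrate. SAH formation detected by MTase-Glo luminescence; single-point 40 uM screen[…].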

[2] = biological target: Guanidinoacetate N-methyltransferase (Homo sapiens) (UniProt Q14353); details: purified enzyme, MTase-Glo SAH luminescence; measured here: GAMT inhibition; at 40 µM; stronger effect = lower value
How it was run: as §1

[3] = biological target: Histamine N-methyltransferase (Homo sapiens) (UniProt P50135); details: purified enzyme, MTase-Glo SAH luminescence; measured here: HNMT inhibition; at 40 µM; stronger effect = lower value
How it was run: as §1

[4] = biological target: Nicotinamide N-methyltransferase (Homo sapiens) (UniProt P40261); details: purified enzyme, MTase-Glo SAH luminescence; measured here: NNMT inhibition; at 40 µM; stronger effect = lower value
How it was run: as §1

[5] = biological target: Phenylethanolamine N-methyltransferase (Homo sapiens) (UniProt P11086); details: purified enzyme, MTase-Glo SAH luminescence; measured here: PNMT inhibition; at 40 µM; stronger effect = lower value
How it was run: as §1
% is scaled to controls: 0 for no effect and ±100 for the full control effect.

Row | Structure (SMILES) | activity change, negative = inhibition [1] [%] | activity change, negative = inhibition [2] [%] | activity change, negative = inhibition [3] [%] | activity change, negative = inhibition [4] [%] | activity change, negative = inhibition [5] [%]
1 | O=C(Cn1ccc2cc(S(=O)(=O)N3CCCCC3)ccc21)NCc1ccccc1Cl | 2.01 | 1.21 | 3.91 | -3.92 | -0.28
2 | CN(C)C1CCN(C(=O)c2ccc(NC(=O)Nc3nc(N4CCOCC4)nc(N4CCOCC4)n3)cc2)CC1 | -0.106 |  | 7.82 |  | 
3 | Cc1ccc(CNC(=O)C2(C)Cc3ccccc3C(=O)N2Cc2cc(F)cc(F)c2)cc1 (stereo not given) | 13.1 | 1.52 | 12.6 | 4.59 | 10.4
4 | C=CC(C)(O)CC/C=C(\C)COC1O[C@H](CO)[C@@H](O)[C@H](O)[C@H]1O (stereo not given in full) | 0 | -11.2 | 4.92 | -23 | -11.6
5 | COc1cccc(CN2C(=O)c3ccc(-c4ccco4)n3CC2(C)C(=O)NCc2ccc(Cl)cc2)c1OC (stereo not given) | -7.08 | -11.3 | -0.368 | -13.5 | -8.71
6 | COC(=O)C1=CO[C@@H](O[C@@H]2O[C@H](CO[C@@H]3O[C@H](COC(=O)/C=C/c4ccc(O)cc4)[C@@H](O)[C@H](O)[C@H]3O)[C@@H](O)[C@H](O)[C@H]2O)[C@@H]2C(CO)=CC[C@H]12 | 4.58 | 8.64 | 9.5 | -3.45 | 8.11
7 | Cc1cccc(CCNC(=O)c2cc3n(n2)CC(C)(C(=O)NCc2ccc(F)cc2)N(C)C3=O)c1 (stereo not given) | 6.23 | 0 | -6.14 | 6.69 | 6.16
8 | Cc1cc2[nH]c(=O)[nH]c2cc1S(=O)(=O)N1CCN(Cc2ccccc2)CC1 | 13 | 2.98 | 11.7 | -1.25 | 5.73
9 | O=C(CCc1nnc2ccc(NCc3ccccc3Cl)nn12)NCC1CCCO1 (stereo not given) | -3.26 | 1.36 | 3.05 | -0.329 | 3.55
10 | COc1ccccc1CNC(=O)C1(C)Cn2nc(-c3ccccc3)cc2C(=O)N1c1ccc(C)c(Cl)c1 (stereo not given) | 0.041 | 4.78 | 0.87 | 6.16 | -1.36
11 | COCCc1noc(C2Cc3ccccc3N2C(=O)Cc2ccc(OC)c(OC)c2)n1 (stereo not given) | -4.73 | -1.98 | -1.04 | -9.37 | 3.57
12 | CCCCCC(=O)N(c1ccc(OC)cc1)S(=O)(=O)c1ccc2c(c1)n(C)c(=O)n2C | 4.55 | -24.4 | 6.81 | -5.9 | 1.8
13 | Cc1cc(N2C(=O)Cn3cccc3C2C(=O)NC2CCCC2)ccc1Br (stereo not given) | 7.28 | 0 | 4.93 | 1.35 | 1.64
14 | CC(C)CCn1c(=O)c2ccc(C(=O)NC(C)C)cc2n2c(=O)[nH]nc12 | -6.93 | 0 | 3.71 | -7.01 | -2.46
15 | OC1C=C2C3CN(Cc4cc5c(cc43)OCO5)C2CC1O (stereo not given) | 4.7 | 2.71 | 10.5 | -7.28 | 3.79
16 | COC(=O)/C=C/C(=O)N(O)CCCCNCc1ccc(COC(=O)Nc2cccc3ccccc23)cc1 | -20.9 | 6.93 | -10.1 | -8.93 | 4.11
17 | COc1ccc(N2CCN(C(=O)c3cc(NC(C)=O)cc4nc(C)ccc34)CC2)cc1 | -13 | -6.26 | -73.7 | -10.9 | -5.98
18 | CC1CCC23COC(=O)C2=CC(O)CC3C1(C)CCC1=CC(O)OC1=O (stereo not given) | -0.342 | -3.2 | -1.27 | -13.7 | 4.07
19 | CC1(C(=O)NC2CCCCCCC2)Cn2c(cc3occc32)C(=O)N1CCCN1CCOCC1 (stereo not given) | 2.62 | 5.29 | 4.86 | -1.54 | 1.74
20 | CC(=O)N[C@H]1CN(S(=O)(=O)c2ccc(C)c(F)c2)C[C@@H]1C(C)C | -1.42 | 3.55 | 1.66 | 1.46 | 1.93

Row | Structure (SMILES) | activity change, negative = inhibition [1] [%] | activity change, negative = inhibition [2] [%] | activity change, negative = inhibition [3] [%] | activity change, negative = inhibition [4] [%] | activity change, negative = inhibition [5] [%]
21 | CCOC(=O)c1cc2n(n1)CC(C)(C(=O)NCc1ccccc1OC)N(c1ccc(C)cc1C)C2=O (stereo not given) | 1.34 | 2.57 | 6.29 | 1.91 | 1.49
22 | C=C(C(=O)O)C1CCC(C)C2CCC(=O)OC2(C)C1 (stereo not given) | 2.19 | 0.61 | 8.84 | -9.3 | 0.179
23 | CC(C)C(C)C(O)C1CC23CC(=O)C4(O)C(=C2CCC3C1C)C=CC1(O)CC(O)CCC14C (stereo not given) | -0.183 | -4.12 | 3.69 | -18.4 | -14.6
24 | COc1ccc(C2CCC(=O)N2Cc2ccc(F)cc2)cc1 (stereo not given) | -4.75 | -2.88 | -1.31 | -20.6 | -7.78
25 | COc1cc(/C=C2\CC[C@H]3COC[C@@H](c4cc(F)c(F)c(F)c4)N3C2=O)ccc1-n1cnc(C)c1 | 1.19 | 1.11 | 2.65 | -15.2 | -0.602
26 | CCC(C)NC(=O)c1ccc2c(=O)n(C(C)C)c3nn(CC(=O)NC4CCCC4)c(=O)n3c2c1 (stereo not given) | 8.52 | 0 | 7.73 | 1.73 | 4.79
27 | C/C(=C\C=C\C(C)C1CCC2(C)C3CCC4C(C)(C)C(=O)CCC45CC35CCC12C)C(=O)O (stereo not given) | -2.15 | -8.66 | 5.31 | -35.4 | -10.6
28 | CC(Oc1ccc2ccccc2c1)C(=O)N(C)Cc1ccc2nsnc2c1 (stereo not given) | -8.92 | -8.16 | -6.52 | -20 | -22.4
29 | Brc1c(NC2=NCCN2)ccc2nccnc12 | -45.2 | 7.67 | -0.119 | -7.15 | -0.821
30 | CC(C)Cc1nc(CN2CCn3nc(C(O)c4ccnn4C)cc3C2)no1 (stereo not given) | 0.985 | 1.26 | 1.51 | -1.3 | 6.92
31 | CC(C)OCCCNC(=O)C1(C)Cn2c(cc3ccccc32)C(=O)N1Cc1cccc(Cl)c1 (stereo not given) | 5.62 | 0 | 9.7 | 6.13 | 1.67
32 | O=C(c1ccsc1)N1CCC2(CCCN(CC3CCC3)C2=O)C1 (stereo not given) | -2.47 | -6.7 | -1.42 | -7.11 | -4.71
33 | CC(NC(=O)Cn1c(=O)oc2cc(S(=O)(=O)NCc3ccccc3)ccc21)c1ccccc1 (stereo not given) | -0.217 | 0.669 | 5.06 | 1.65 | -1.31
34 | CN(C)CCOC(=O)COc1ccc(Cl)cc1 | 5.82 | 15.3 | -6.28 | -0.571 | 2.52
35 | O=C(NC1CCN(c2cc(-c3ccc(F)cc3)[nH]n2)C1)c1cc2ccccc2[nH]1 (stereo not given) | -19.8 | -3.94 | -2.58 | -19.2 | -6.84
36 | CC1=C[C@@H]2[C@H]3[C@@H]4O[C@@](C)(CC[C@H]4O)[C@H]3CC(=O)[C@]23C(=O)N[C@@H](CC(C)C)[C@@H]3[C@@H]1C | 5.43 | 2.21 | 8.92 | -11.3 | -0.727
37 | O=C1CCCCN1CCNc1ccc(-c2nc(-c3ccccc3F)no2)cn1 | -7.95 | -11.7 | -17.8 | -4.32 | -0.933
38 | Cc1ccc(CCNC(=O)CCCn2ccc3cc(S(=O)(=O)N4CCCC4)ccc32)cc1 | 6.59 | 0.197 | 8.33 | 4.86 | 4.81
39 | Cc1cc(C(=O)NC2CCCC2)c2c(C3CCNC3)noc2n1 (stereo not given) | -1.36 | 2.57 | -1.28 | -1.06 | -4.57
40 | O=C(NCc1ccc(OC(F)(F)F)cc1)C1c2c(F)cccc2C(=O)N1CCc1ccccn1 (stereo not given) | 2.42 | 8.02 | 11.4 | -10.3 | 3.57

Row | Structure (SMILES) | activity change, negative = inhibition [1] [%] | activity change, negative = inhibition [2] [%] | activity change, negative = inhibition [3] [%] | activity change, negative = inhibition [4] [%] | activity change, negative = inhibition [5] [%]
41 | CC1CCC(NC(=O)C2(C)Cn3c(cc4sccc43)C(=O)N2CCN2CCCCCC2)CC1 (stereo not given) | -6.18 | 2.19 | -15.6 | -3.4 | -3.63
42 | CCCn1c(=O)c2ccc(Cl)cc2n2c(=O)n(CC(=O)NCc3ccccc3)nc12 | -0.227 | 0 | 3.95 | 0.664 | 2.34
43 | CC(C)c1ccc(NS(=O)(=O)c2ccc3[nH]c4c(c3c2)CCCC4)cc1 | 2.41 | 4.72 | 1.57 | -7.36 | 1.79
44 | CCCCN(CC)CCN1C(=O)c2cc3occc3n2CC1(C)C(=O)NC1CCCCCCC1 (stereo not given) | 4.53 | 0 | -5.43 | 0.237 | -1.54
45 | FC(F)(F)c1ccc(N2C3CCC2CN(Cc2ccc(-c4ccccc4)cc2)C3)cc1 | -4.97 | -12.3 | -1.38 | -12 | -5.91
46 | Cc1ccc(CNC(=O)c2cc3n(n2)CC(C)(C(=O)NC2CCCCCC2)N(C)C3=O)o1 (stereo not given) | -5.44 | 0 | -3.29 | -4.3 | -6.94
47 | CCC(C)NC(=O)c1ccc2c(=O)n(C)c3nn(Cc4ccc(F)cc4)c(=O)n3c2c1 (stereo not given) | 1.16 | 1.1 | 5.87 | -0.465 | 1.88
48 | CCOC(=O)c1cc2n(n1)CC(C)(C(=O)NCc1ccccc1)N(Cc1cccc(C)c1)C2=O (stereo not given) | -0.132 | 1.95 | 0.998 | -0.811 | -3.71
49 | Cn1c(C(=O)N2CCN(c3ccccn3)CC2)nc2nc(-c3ccccc3)c(Cl)cc21 | -9.07 | -4.92 | -6.89 | -11.9 | -3.97
50 | CC1(C(=O)NC2CCCCCC2)Cn2c(cc3occc32)C(=O)N1Cc1ccc(F)cc1 (stereo not given) | -2.42 | 0 | 3.33 | -10.6 | -1.59
51 | CC1(C(=O)NCc2ccccc2)Cn2cnc(C(=O)NCc3ccccc3F)c2C(=O)N1C1CC1 (stereo not given) | -2.02 | 0 | -2.79 | -1.21 | 1.48
52 | C#Cc1cccc(Nc2ncnc3cc(OC)c(OC)cc23)c1 |  | -22.8 |  | -29.9 | -32.5
53 | COCC(=O)N1CC(C(=O)NCc2ccncc2)C2(CCOCC2)C1 (stereo not given) | 0.631 | -0.09 | 1.79 | 1.02 | -3.64
54 | CCC(=O)c1cc(-c2ccc(Cl)cc2)n(-c2ccc(S(N)(=O)=O)cc2)c1C | -4.08 | -7.65 | -4.73 | -34.6 | -11.7
55 | CC1CC(C)CN(CCCNC(=O)C2(C)Cn3c(cc4ccccc43)C(=O)N2Cc2cccs2)C1 (stereo not given) | 1.37 | 0.315 | -1.47 | 2.82 | -0.792
56 | COc1ccc(-c2ccc3nnc(CNC(=O)c4ccoc4)n3n2)cc1 | -10.3 | -1.83 | -2.97 | -2.08 | 1.69
57 | CCCn1c(=O)c2ccc(C(=O)NC(C)C)cc2n2c(SCC(=O)c3ccc(OC)cc3)nnc12 | -0.983 | 1.72 | -5.44 | 3.35 | 0.2
58 | O=c1c2ccccc2n2c(=O)n(Cc3ccc(Cl)cc3)nc2n1Cc1ccc(F)cc1 | 0.231 | 5.4 | 3.67 | 3.42 | 1.38
59 | COc1ccc(CNC(=O)c2ncn3c2C(=O)N(C2CC2)C(C)(C(=O)NCc2ccc(F)cc2)C3)cc1 (stereo not given) | 0.743 | 1.01 | 11.7 | 7.39 | 5.32
